About 1,500 (0.65%) of roughly 230,000 compounds were called active. Inconclusive means that the source gave no clear call. Such entries were picked first, then a sample of the others. Calls follow the shape of the dose curve; as a rule, active = well fitted inhibition curve with a large enough effect; inconclusive = small, poorly fitted or top-dose-only effect; inactive = no such curve, though single readings can be large or run the other way. A potency beside an inconclusive call is a rough fit, not a confirmed value.
Biological target: Lethal(3)malignant brain tumor-like protein 1 (Homo sapiens) (UniProt Q9Y468)
Assay: qHTS Assay for the Inhibitors of L3MBTL1; also: nearly all actives have a fitted effect of over 60% in size
Conditions: AlphaScreen L3MBTL1–H3K9me1 peptide binding; activity, negative = inhibition: at 57.1 µM (top of the series)
Method in brief: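 First, the protein-peptide complex forms for 30 min at room temperature (L3MBTL1 50 nM, biotinylated H3K9me1 peptide 75 nM). Next, compounds are pin-transferred and incubated 30 min. Finally, AlphaScreen beads are added and read after 30 min.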
% is scaled to controls: 0 for no effect and ±100 for the full control effect; potency is read from the fitted curve at half-maximal effect; tags tell the direction and shape of the fitted curve.

Chain of UniProt Q9Y468 (Q9Y468 whole entry, looked up): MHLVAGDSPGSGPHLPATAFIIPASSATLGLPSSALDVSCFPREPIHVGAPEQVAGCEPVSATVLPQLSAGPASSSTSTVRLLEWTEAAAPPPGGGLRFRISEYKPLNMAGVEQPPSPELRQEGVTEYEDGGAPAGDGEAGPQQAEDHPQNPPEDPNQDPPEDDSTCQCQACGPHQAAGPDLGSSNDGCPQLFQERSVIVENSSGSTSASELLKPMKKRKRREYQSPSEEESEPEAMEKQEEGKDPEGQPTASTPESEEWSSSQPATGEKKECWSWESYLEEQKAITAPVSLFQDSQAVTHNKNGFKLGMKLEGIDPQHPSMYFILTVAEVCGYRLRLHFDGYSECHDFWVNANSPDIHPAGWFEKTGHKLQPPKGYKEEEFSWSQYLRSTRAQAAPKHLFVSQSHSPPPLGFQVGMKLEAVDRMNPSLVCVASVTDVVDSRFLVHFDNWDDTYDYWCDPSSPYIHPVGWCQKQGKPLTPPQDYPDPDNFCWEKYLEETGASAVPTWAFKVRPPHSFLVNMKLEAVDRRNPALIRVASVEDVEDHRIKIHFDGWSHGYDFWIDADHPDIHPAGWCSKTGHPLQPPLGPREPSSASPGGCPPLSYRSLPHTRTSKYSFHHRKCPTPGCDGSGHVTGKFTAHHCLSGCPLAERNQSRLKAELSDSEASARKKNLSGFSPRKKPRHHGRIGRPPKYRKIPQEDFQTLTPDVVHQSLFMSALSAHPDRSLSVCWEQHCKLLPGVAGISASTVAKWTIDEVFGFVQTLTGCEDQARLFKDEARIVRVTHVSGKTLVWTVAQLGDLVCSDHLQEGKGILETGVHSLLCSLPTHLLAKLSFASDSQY

| Compound | Potency | activity, negative = inhibition |
| --- | --- | --- |
| O=C(NC1(C(F)(F)F)NC(=O)N(C2CCCC2)C1=O)C1CC1 (stereo not given) | inconclusive: 6.31 µM [inhibitor, single point] | – |
| O=C(CSc1ccc2nnc(-c3cccs3)n2n1)N1CCCC1 | inconclusive: 20 µM [inhibitor, partial curve] | – |
| O=C(C(Cl)Cl)N1CCN(Cc2ccccc2)CC1 | – | inactive: -2.8% |
| CC1CCCN(C(C(=O)NC2CCCCC2)c2cc3c(cc2[N+](=O)[O-])OCO3)C1 (stereo not given) | active: 11.2 µM | – |
| O=C(NCc1ccco1)c1cccc2c1C(=O)c1ccc(/C=C/c3ccccc3)cc1S2(=O)=O | inconclusive: 28.2 µM [inhibitor, single point] | – |
| C[C@@H](O)[C@H]1O[C@]2(C)CCC[C@H]1O2 | inconclusive: 31.6 µM [inhibitor, single point] | – |
| O=C(/C=C/c1ccco1)N1CCN(S(=O)(=O)/C=C/c2ccccc2)CC1 | – | inactive: -24.1% |
| O=c1cc(-c2c(O)c3ccccc3n(Cc3ccccc3)c2=O)[nH][nH]1 | inconclusive: 35.5 µM [inhibitor, single point] | – |
| O=C(CN1CCN(c2ccccn2)CC1)Nc1cccc(S(=O)(=O)N2CCOCC2)c1 | inconclusive: 0.708 µM [inhibitor, single point] | – |
| O=C(CCCn1cc([N+](=O)[O-])cn1)NC1CCCCCC1 | inconclusive: 0.562 µM [inhibitor, full curve, poor fit] | – |
| C=CCNC(=O)c1ccc([N+](=O)[O-])c(Cl)c1 | – | inactive: -2.56% |
| N#C/C(=C\c1ccc(OC(=O)c2ccccn2)cc1)C(N)=O | inconclusive: 0.708 µM [inhibitor, full curve, poor fit] | – |
| CCOC(=O)C1=C(COC(=O)c2ccc([N+](=O)[O-])s2)NC(=O)NC1C (stereo not given) | inconclusive: 20 µM [inhibitor, single point] | – |
| CSc1ccc(/C=N/NC(=O)COc2ccc(Br)cc2Cl)cc1 | – | inactive: 22% |
| OCCC1CN(Cc2nc3ccccc3s2)CCN1CCc1ccccc1 (stereo not given) | – | inactive: -13.6% |
| CN(C)CCCNC(=O)c1ccc(-c2cc(O)c3ncccc3c2)cc1 | active: 20 µM | – |
| Clc1cccc(CN2CCSCC2)c1 | – | inactive: -2.73% [at 2.29 µM] |
| CCCCCNc1nc(N2CCCC2)c2c(c1C#N)CCN(C)C2 | – | inactive: -2.39% |
| O=C(O)CCC(=O)NCc1cn(-c2ccccc2)nc1-c1cccc(Br)c1 | inconclusive: 0.708 µM [inhibitor, single point] | – |
| CCN1C(=O)c2ccc(C(=O)NCc3ccc4c(c3)OCO4)cc2C1=O | inconclusive: 10 µM [inhibitor, partial curve, poor fit] | – |
| CCN(CC)CC(=O)Nc1sc(C)c(C)c1C(=O)c1ccc(C)cc1 | inconclusive: 0.126 µM [inhibitor, partial curve, poor fit] | – |
| CCOc1ccc(S(=O)(=O)Nc2ccc3c(c2)OCO3)c2cccnc12 | inconclusive: 22.4 µM [inhibitor, single point] | – |
| c1ccc(CCNc2nc(-c3ccccn3)cs2)cc1 | inconclusive: 39.8 µM [inhibitor, single point] | – |
| O=C(/C=C/c1cccc(C(F)(F)F)c1)NNC(=O)c1ccncc1 | inconclusive: 0.355 µM [inhibitor, partial curve, poor fit] | – |

| Compound | Potency | activity, negative = inhibition |
| --- | --- | --- |
| CN1CCN(S(=O)(=O)c2cccc(C(=O)Nc3sc4c(c3C(N)=O)CCCC4)c2)CC1 | – | inactive: 1.11% |
| CSc1nc2ccc(NC(=O)C3=NN(c4ccccc4)C(=O)CC3)cc2s1 | inconclusive: 28.2 µM [inhibitor, partial curve, poor fit] | – |
| CCc1ccc(N2CC(C(=O)Nc3ccc(S(=O)(=O)N4CCOCC4)cc3)CC2=O)cc1 (stereo not given) | – | inactive: -4.58% |
| Cc1cc(C)nc(SCC(=O)NNS(=O)(=O)c2ccc(C#N)cc2)n1 | inconclusive: 28.2 µM [inhibitor, single point] | – |
| N#Cc1c(-c2cccs2)nc(SCc2ccc(Cl)cc2)[nH]c1=O | inconclusive: 31.6 µM [inhibitor, partial curve] | – |
| Cc1ccc(-n2c(SCc3cc(=O)n4ccsc4n3)nnc2-c2cccnc2)c(C)c1 | inconclusive: 20 µM [inhibitor, partial curve] | – |
| CCOP(=O)(OCC)C(Nc1cccc([N+](=O)[O-])c1)c1ccc(N(C)C)cc1 (stereo not given) | inconclusive: 22.4 µM [inhibitor, single point] | – |
| CN(C)C(=O)c1nc2ccccc2s1 | – | inactive: 5.39% |
| CN(C)S(=O)(=O)c1cccc(NC(=S)NN=C(Cc2ccccc2)Cc2ccccc2)c1 | inconclusive: 0.708 µM [inhibitor, single point] | – |
| CC(C)CC(=O)N1CCN(Cc2ccccc2Cl)CC1 | – | inactive: -2.9% [at 2.29 µM] |
| CCC(C)n1c(SCc2ccc([N+](=O)[O-])cc2)nc2ccsc2c1=O (stereo not given) | inconclusive: 28.2 µM [inhibitor, partial curve] | – |
| CCN(CC)c1ccc(NC(=O)COC(=O)C2CCN(c3ccc(C(F)(F)F)cn3)CC2)cc1 | inconclusive: 15.8 µM [inhibitor, partial curve] | – |
| CC1CCC2(CC1)NC(=O)N(CC(=O)N1CCOCC1)C2=O (stereo not given) | – | inactive: -7.98% |
| COc1ccc(OCC(=O)N2CCN(c3nnc(-c4ccc(C)cc4)c4ccccc34)CC2)cc1 | inconclusive: 31.6 µM [inhibitor, single point] | – |
| O=[N+]([O-])c1ccc(N/N=C2/CCCCC2c2ccccn2)cc1 (stereo not given) | inconclusive: 0.794 µM [inhibitor, single point] | – |
| COc1ccc(-c2cc(-c3cccs3)c(C#N)c(SCC(=O)NCc3ccco3)n2)cc1 | – | inactive: -8.81% |
| O=C(Nc1ccc2nsnc2c1)C1CC1 | inconclusive: 0.141 µM [inhibitor, full curve, poor fit] | – |
| O=Cc1ccc(-c2cccc(C(=O)O)c2)o1 | inconclusive: 28.2 µM [inhibitor, single point] | – |
| O=C(N/N=C/C=C\c1ccco1)c1cccs1 | active: 6.31 µM | – |
| Cc1ccc(C)c2sc(N3CCN(C(=O)c4ccc([N+](=O)[O-])o4)CC3)nc12 | – | inactive: -4.39% |
| CCOC(=O)N/N=C/c1ccccc1F | – | inactive: 7.69% |
| COc1ccccc1Oc1nc2c(c(=O)n(Cc3ccccc3F)c(=O)n2C)n1C | inconclusive: 31.6 µM [inhibitor, single point] | – |
| O=C(Nc1cccc(Cl)c1)/C(=C\c1cccnc1)NC(=O)c1ccco1 | – | inactive: 2.86% |
| CC(=O)Nc1ccc(NC(=O)c2cccc(S(=O)(=O)N3CCCCCC3)c2)cc1 | inconclusive: 35.5 µM [inhibitor, single point] | – |

| Compound | Potency | activity, negative = inhibition |
| --- | --- | --- |
| COc1ccc(CNC(=O)c2cnc(C)cn2)cc1 | active: 22.4 µM | – |
| COc1cccc(C2C=C(c3cccs3)Nc3ncnn32)c1OC (stereo not given) | inconclusive: 0.794 µM [inhibitor, single point] | – |
| Cn1c(=O)c(C(=O)CN2CCCc3ccccc32)c(N)n(Cc2ccccc2)c1=O | inconclusive: 10 µM [inhibitor, partial curve] | – |
| Cc1ccc(-c2nnn(CC(=O)N(CC(=O)NC3CCCC3)c3ccc(F)c(Cl)c3)n2)o1 | inconclusive: 0.708 µM [inhibitor, single point] | – |
| N#Cc1c(NC(=O)CSc2ncnc3sccc23)oc(-c2ccco2)c1-c1ccco1 | active: 12.6 µM | – |
| Nc1ccccc1C(=O)NNc1c2ccccc2nc2ccccc12 | inconclusive: 7.08 µM [inhibitor, partial curve] | – |
| N#CCCN(CCC#N)C(=O)c1ccc(Cl)cc1 | inconclusive: 5.01 µM [inhibitor, single point] | – |
| O=C(/C=C/c1ccc(Br)cc1)NCCCn1ccnc1 | – | inactive: -3.69% |
| Nc1cc(N)c(OCC(F)(F)F)cc1OCC(F)(F)F | inconclusive: 31.6 µM [inhibitor, single point] | – |
| COc1ccc(N2CCN(c3c(S(=O)(=O)c4ccccc4)cnc4ccc(OC)cc34)CC2)cc1 | inconclusive: 14.1 µM [inhibitor, partial curve] | – |
| CCNc1nc(NCC)nc(-n2nc(C)cc2C)n1 | – | inactive: -18.8% |
| COc1ccc2oc(=O)c(C(=O)C[n+]3cccc(C)c3)cc2c1 | inconclusive: 20 µM [inhibitor, single point] | – |
| CCCCC[C@H](O)/C=C/[C@H]1C=CC(=O)[C@@H]1C/C=C\CCCC(=O)O | – | inconclusive: -97.6% [inhibitor] |
| Cc1cc(C(=O)CSc2nc(N)cc(=O)[nH]2)c(C)n1-c1ccc(OC(F)F)cc1 | inconclusive: 3.55 µM [inhibitor, single point] | – |
| Cc1onc(C(=O)N2C(C)CCCC2C)c1[N+](=O)[O-] (stereo not given) | – | inactive: -11.6% |
| O=C(NCCCN1CCOCC1)c1cc(-c2ccco2)nc2ccccc12 | inconclusive: 25.1 µM [inhibitor, single point] | – |
| C[C@@H]1O[C@@H](O[C@@H]2[C@@H](O)[C@H](OCCc3ccc(O)c(O)c3)O[C@H](CO)[C@H]2OC(=O)/C=C/c2ccc(O)c(O)c2)[C@H](O)[C@H](O)[C@H]1O | inconclusive: 15.8 µM [inhibitor, partial curve] | – |
| Cc1ccnc2nc(C(=O)OC(C)C(=O)NCc3ccccc3)nn12 (stereo not given) | inconclusive: 39.8 µM [inhibitor, single point] | – |
| Cc1ccsc1C(=O)N1CCN(S(=O)(=O)c2cccc(F)c2)CC1 | – | inactive: -1.24% |
| Cc1cccc(NC(=S)N2CCN(c3cc(C)ccc3C)CC2)c1 | inconclusive: 0.708 µM [inhibitor, single point] | – |
| Fc1ccc(C2CC(c3ccccc3)n3ncnc3N2)cc1 (stereo not given) | inconclusive: 4.47 µM [inhibitor, single point] | – |
| Cc1ccc(C2(C)NC(=O)N(CC(=O)Nc3nc(-c4ccccn4)cs3)C2=O)cc1 (stereo not given) | inconclusive: 31.6 µM [inhibitor, single point] | – |

From PubChem BioAssay AID485360 (National Center for Advancing Translational Sciences (NCATS), 2010)
